# From the supplement of paper PMC8728848
# The list shows a part of the results.
# Tests used:
# Assay in all cases: glycan array binding signal (z-score within array); higher = stronger binding
# Conditions in all cases: glycan notation: IUPAC condensed, linker removed
# [1] = target: Gal(a1-3)Gal(b1-4)GlcNAc(b1-2)Man
# Procedure, shortened: (§1)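 The binding signal is a Z-score computed within each array. Data were drawn from 3228 arrays in the Consortium for Functional Glycomics database, restricted to those with a known protein sequence. Scores were averaged over arrays of the same protein sequence at different concentrations or buffers, and over linkers, and negative values can be taken as non-binding.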
# [2] = target: Gal(a1-3)Gal(b1-4)GlcNAc(b1-2)Man(a1-3)[Gal(a1-3)Gal(b1-4)GlcNAc(b1-2)Man(a1-6)]Man(b1-4)GlcNAc(b1-4)GlcNAc
# Procedure, shortened: as §1
# [3] = target: Gal(a1-3)Gal(b1-4)GlcNAc(b1-3)GalNAc
# Procedure, shortened: as §1
# [4] = target: Gal(a1-3)Gal(b1-4)GlcNAc(b1-6)GalNAc
# Procedure, shortened: as §1
# [5] = target: Gal(a1-3)Gal(b1-4)[Fuc(a1-3)]GlcNAc
# Procedure, shortened: as §1
# [6] = target: Gal(a1-3)Gal(b1-4)[Fuc(a1-3)]GlcNAc(b1-2)Man(a1-3)[Gal(a1-3)Gal(b1-4)[Fuc(a1-3)]GlcNAc(b1-2)Man(a1-6)]Man(b1-4)GlcNAc(b1-4)GlcNAc
# Procedure, shortened: as §1
# [7] = target: Gal(a1-3)GalNAc
# Procedure, shortened: as §1
# [8] = target: Gal(a1-3)[Gal(a1-4)]Gal(b1-4)GlcNAc
# Procedure, shortened: as §1
# [9] = target: Gal(a1-4)Gal(b1-3)GlcNAc(b1-2)Man(a1-3)[Gal(a1-4)Gal(b1-3)GlcNAc(b1-2)Man(a1-6)]Man(b1-4)GlcNAc(b1-4)GlcNAc
# Procedure, shortened: as §1
# [10] = target: Gal(a1-4)Gal(b1-4)Glc
# Procedure, shortened: as §1
# [11] = target: Gal(a1-4)Gal(b1-4)GlcNAc
# Procedure, shortened: as §1
# [12] = target: Gal(a1-4)Gal(b1-4)GlcNAc(b1-2)Man(a1-3)[Gal(a1-4)Gal(b1-4)GlcNAc(b1-2)Man(a1-6)]Man(b1-4)GlcNAc(b1-4)GlcNAc
# Procedure, shortened: as §1
# [13] = target: Gal(a1-4)Gal(b1-4)GlcNAc(b1-3)Gal(b1-4)Glc
# Procedure, shortened: as §1
# [14] = target: Gal(a1-4)GlcNAc
# Procedure, shortened: as §1
# [15] = target: Gal(a1-6)Glc
# Procedure, shortened: as §1
# [16] = target: Gal(b1-2)Gal
# Procedure, shortened: as §1
# [17] = target: Gal(b1-3)Gal
# Procedure, shortened: as §1
# [18] = target: Gal(b1-3)Gal(b1-4)GlcNAc
# Procedure, shortened: as §1
# [19] = target: Gal(b1-3)GalNAc
# Procedure, shortened: as §1
# [20] = target: Gal(b1-3)GalNAc(a1-3)[Fuc(a1-2)]Gal(b1-4)Glc
# Procedure, shortened: as §1
# [21] = target: Gal(b1-3)GalNAc(a1-3)[Fuc(a1-2)]Gal(b1-4)GlcNAc
# Procedure, shortened: as §1
# [22] = target: Gal(b1-3)GalNAc(b1-3)Gal
# Procedure, shortened: as §1
# [23] = target: Gal(b1-3)GalNAc(b1-3)Gal(a1-4)Gal(b1-4)Glc
# Procedure, shortened: as §1
# [24] = target: Gal(b1-3)GalNAc(b1-4)Gal(b1-4)Glc
# Procedure, shortened: as §1
# [25] = target: Gal(b1-3)GalNAc(b1-4)[Neu5Ac(a2-3)]Gal(b1-4)Glc
# Procedure, shortened: as §1
# [26] = target: Gal(b1-3)GlcNAc
# Procedure, shortened: as §1
# [27] = target: Gal(b1-3)GlcNAc(a1-3)Gal(b1-4)GlcNAc
# Procedure, shortened: as §1
# [28] = target: Gal(b1-3)GlcNAc(a1-6)Gal(b1-4)GlcNAc
# Procedure, shortened: as §1
# [29] = target: Gal(b1-3)GlcNAc(b1-2)Man
# Procedure, shortened: as §1
# [30] = target: Gal(b1-3)GlcNAc(b1-2)Man(a1-3)[Gal(b1-3)GlcNAc(b1-2)Man(a1-6)]Man(b1-4)GlcNAc(b1-4)GlcNAc
# Procedure, shortened: as §1
# [31] = target: Gal(b1-3)GlcNAc(b1-2)Man(a1-3)[Gal(b1-3)GlcNAc(b1-2)Man(a1-6)]Man(b1-4)GlcNAc(b1-4)[Fuc(a1-6)]GlcNAc
# Procedure, shortened: as §1
# [32] = target: Gal(b1-3)GlcNAc(b1-2)Man(a1-3)[GlcNAc(b1-4)][Gal(b1-3)GlcNAc(b1-2)Man(a1-6)]Man(b1-4)GlcNAc(b1-4)GlcNAc
# Procedure, shortened: as §1
# [33] = target: Gal(b1-3)GlcNAc(b1-2)[Gal(b1-3)GlcNAc(b1-6)]Man(a1-6)[Gal(b1-3)GlcNAc(b1-2)Man(a1-3)]Man(b1-4)GlcNAc(b1-4)GlcNAc
# Procedure, shortened: as §1
# [34] = target: Gal(b1-3)GlcNAc(b1-3)Gal(b1-3)GlcNAc
# Procedure, shortened: as §1
# [35] = target: Gal(b1-3)GlcNAc(b1-3)Gal(b1-4)Glc
# Procedure, shortened: as §1
# [36] = target: Gal(b1-3)GlcNAc(b1-3)Gal(b1-4)GlcNAc
# Procedure, shortened: as §1
# [37] = target: Gal(b1-3)GlcNAc(b1-3)Gal(b1-4)GlcNAc(b1-2)Man(a1-3)[Gal(b1-3)GlcNAc(b1-3)Gal(b1-4)GlcNAc(b1-2)Man(a1-6)]Man(b1-4)GlcNAc(b1-4)GlcNAc
# Procedure, shortened: as §1
binder,measurement,setting,value
PX15618B-bfa-464-25-464 (Bacteroides fragilis) (protein) DQEPPLYVNENDIFTSPTRIEATLNGLYAAIKNTGTKSLMGGKSYLVFDNRGDDVINISNNLVTLFNTYNMNVGITDAENADTWTYAYLAINKVNTFLQSLEGAREVAGENYDRYVQEAKFVRALAYYYLNNLYPTPYSVNPDAKSVPLRLTAEAGTENNNMPRSTVKQIYEHILSDLENISALDTEVNTYTGVTHATQAAANMLKMRVYMAMNEWDKAITAGELVTGYSLPEDVTLIYKAPYFSQESIFSLPMADTNIPNTQQSLAEYYYDGKIMLIDTKSGIMSKPDYSLATDKRIIAFKGEKDLLMKFTDAKTKLQWVPIFRYAETLLDLAECYANKAGGEATAKSLLKQVRGRSVDAATDPLNIDNLSGDALKEAIYNEKRLEFIGEGIRGIDIMRRGEHFIKVGENETINVGPSDEKYTWPIPQVELLLNKDINK,glycan array binding signal (z-score),[1],0.039
same,glycan array binding signal (z-score),[2],-0.105
same,glycan array binding signal (z-score),[3],-0.653
same,glycan array binding signal (z-score),[4],-0.037
same,glycan array binding signal (z-score),[5],-0.436
same,glycan array binding signal (z-score),[6],0.617
same,glycan array binding signal (z-score),[7],-0.322
same,glycan array binding signal (z-score),[8],0.76
same,glycan array binding signal (z-score),[9],-0.128
same,glycan array binding signal (z-score),[10],0.822
same,glycan array binding signal (z-score),[11],-0.055
same,glycan array binding signal (z-score),[12],-0.514
same,glycan array binding signal (z-score),[13],-0.294
same,glycan array binding signal (z-score),[14],-0.489
same,glycan array binding signal (z-score),[15],0.06
same,glycan array binding signal (z-score),[16],-0.364
same,glycan array binding signal (z-score),[17],0.33
same,glycan array binding signal (z-score),[18],-0.449
same,glycan array binding signal (z-score),[19],-0.232
same,glycan array binding signal (z-score),[20],-0.611
same,glycan array binding signal (z-score),[21],-0.763
same,glycan array binding signal (z-score),[22],0.228
same,glycan array binding signal (z-score),[23],0.339
same,glycan array binding signal (z-score),[24],0.013
same,glycan array binding signal (z-score),[25],-0.288
same,glycan array binding signal (z-score),[26],1.37
same,glycan array binding signal (z-score),[27],-0.392
same,glycan array binding signal (z-score),[28],0.115
same,glycan array binding signal (z-score),[29],0.431
same,glycan array binding signal (z-score),[30],-0.247
same,glycan array binding signal (z-score),[31],0.341
same,glycan array binding signal (z-score),[32],0.456
same,glycan array binding signal (z-score),[33],0.104
same,glycan array binding signal (z-score),[34],0.182
same,glycan array binding signal (z-score),[35],-0.07
same,glycan array binding signal (z-score),[36],-0.377
same,glycan array binding signal (z-score),[37],-0.678
